Data: the supplement of paper PMC10185492
The other results are listed elsewhere or left out. Values come from read counts of a selection and are noisy.

What follows are substances tested on SARS-CoV-2 3CLpro (nsp5) (assay: substrate phage enrichment score (protease-eluted vs HEPES control, +1 offset) (ratio); higher = better cleaved substrate). Conditions: selection round: 3; protease elution time: 0.5 h.
Description: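 Random heptapeptide substrate phage display (M13 pIII fusion, heptapeptide between an N-terminal biotinylated AviTag GLNDIFEAQKIEWHE and pIII; phages immobilised on streptavidin) eluted by cleavage with 50 nM protease in 20 mM HEPES at 37 °C. Selected phages were NGS sequenced, and the enrichment score is (reads in protease sample + 1)/(reads in HEPES blank-selection control + 1).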

Row | Substance | substrate phage enrichment score
1 | DERVWTN | 6.33
2 | SNWTVCR | 8.75
3 | RCHLQGG | > 77
4 | AAAHQHH | 0.902
5 | RCHSLIQ | > 29
6 | DVGDLSS | > 27
7 | RRSAVLH | > 36
8 | VSYLQSC | > 48
9 | SHSVPEL | 0.333
10 | LNPHSHA | > 32
11 | EPQASGS | 5.5
12 | VARNCTR | 3.83
13 | KQETYSH | > 31
14 | WYFQGGS | 0.7
15 | SKCCLQS | > 29
16 | PVFPPEM | > 21
17 | EAPERGL | > 38
18 | GLKRGSC | > 38
19 | SQGPSTD | 9
20 | SRRGPNN | 3.67
21 | PVEATCR | > 22
22 | SIFRVVV | 1
23 | CIFRVVV | 1.75
24 | GTSTKLQ | > 26

Row | Substance | substrate phage enrichment score
25 | MHLNGSC | 2.57
26 | PEGTLLQ | > 22
27 | PQSRKDR | > 34
28 | LSNAKQG | > 24
29 | KSLLQSG | > 28
30 | TYSITQS | > 40
31 | SKPLSTS | 2.71
32 | AVAHHHH | 0.667
33 | ARTSELQ | > 130
34 | AYFQGGS | 4.04
35 | RRDEQLP | > 25
36 | SAAAHKH | 1.06
37 | AVISWPG | 3.85
38 | SCPLGSR | 1.67
39 | EQNFQGG | 9
40 | LSLSLPS | 0.81
41 | KRSTTLI | > 34
42 | NPHIEPR | 10
43 | KDVVLQA | > 26
44 | PLSAQLQ | > 53
45 | AMTACGK | > 92
46 | LIKPTMQ | > 23
47 | DLYFQGG | 0.4
48 | VNAAAHH | 2.51

Row | Substance | substrate phage enrichment score
49 | EIQSGPG | 7.14
50 | ARSTLQS | > 241
51 | HVRATLQ | > 50
52 | GPQKHSV | > 26
53 | GHDEILQ | 1.69
54 | RERKEPT | 1.27
55 | NHARMTD | 13.5
56 | PNMPASR | 4.89
57 | RAPVLQR | 13.5
58 | RCVPKLQ | > 26
59 | TNVLCTK | 0.143
60 | LTLERTG | 1.09
61 | SSAAAHH | 0.854
62 | SPECLRD | > 36
63 | THGRPMR | 2.93
64 | KGSLNDR | 1.94
65 | CNECAEW | 3.07
66 | AREREAV | 1.75
67 | DQPVRLQ | > 32
68 | YSQGWLQ | > 43
69 | TRYNPAL | 12
70 | ESTLQGN | 17
71 | AHRTQHR | 0.562
72 | SELQSGA | 8.33

Row | Substance | substrate phage enrichment score
73 | GAAHHHH | 1.74
74 | RPPSELG | 1
75 | VPKTKLQ | > 44
76 | ESSRVVS | 1.59
77 | CLQPIKG | 1.88
78 | RPSCRDR | 6.75
79 | RHPYNAL | > 24
80 | TPPVRLQ | 8.17
81 | QRQSHSI | 1.88
82 | PHVSVMK | 5.4
83 | VQDNTAA | 0.0769
84 | YGAAHHH | 0.344
85 | QTRLQCS | > 28
86 | ECDVQWY | 1
87 | AAAKLQS | 101
88 | KQLDSCR | > 98
89 | RNFQGGS | 1
90 | IKYDLKQ | 1.44
91 | KCKCTLQ | > 63
92 | ERLNNCR | 0.0492
93 | ASRPGIF | 12.3
94 | VQLSHPK | 1.1
95 | GAAAHHQ | 0.353
96 | TRRTTKC | 3.62

Row | Substance | substrate phage enrichment score
97 | TVLQAHG | 101
98 | GCRLQSG | > 73
99 | TEQAERL | 2.25
100 | LKSSDLQ | 9
101 | TPVQLRS | > 29
102 | YSENRSR | 0.6
103 | TGCRTVP | 0.154
104 | FDPWDVN | 8.8
105 | DCTPDSK | 1.5
106 | MHPEWGA | 1.8
107 | RTWDANT | 1.39
108 | CGHAHHH | > 32
109 | KTFCDLQ | 11
110 | ICGPASA | > 22
111 | RRSTKLQ | 2.29
112 | TKAAHHH | 1.26
113 | PPLSPLR | 4.6
114 | SGSAAAH | 0.469
115 | ATERRNT | 0.522
116 | CALNHGQ | > 21
117 | DCSQGTN | 1.8
118 | VVVRGLR | 6.33
119 | ATAAHHH | 1
120 | TRSHPSE | 0.833

Row | Substance | substrate phage enrichment score
121 | WVSKGCC | > 24
122 | RNEKMRS | > 29
123 | GLAAHHH | 1
124 | REAAHHH | 1.27
125 | CGPSWEV | 17
126 | ADFQGGS | 2.88
127 | NTRSGMT | > 22
128 | LHTGEVS | > 24
129 | IRCTAVQ | > 32
130 | TLTGGAR | 1.08
131 | YKLNSPG | 15.5
132 | VCLQAVC | 186
133 | SAAAHHY | 1.94
134 | PCARRSM | > 42
135 | KRMETCG | > 83
136 | LKASVLQ | > 34
137 | EITVEPN | 1.64
138 | YFQGGSA | 0.734
139 | ERIEIED | 7.33
140 | TRHTRCG | 0.0488
141 | SGSSRGM | 4.3
142 | SACSGMK | 0.087
143 | HKNHNCR | 10.5
144 | DAERFCR | > 22

Row | Substance | substrate phage enrichment score
145 | LCTVPRQ | > 60
146 | RTPATIH | 2.25
147 | VDGGLER | 1.2
148 | CPRQILS | > 44
149 | PAAAHHH | 0.968
150 | LEAAHHH | 0.763
151 | PGADDHI | 10.7
152 | AVLRQGT | > 21
153 | RVHLQCG | 29.5
154 | TRQGPSE | 1.83
155 | DATRAQT | 8.33
156 | SQAGPSG | 1.36
157 | EYPFTVP | 1.81
158 | KHIKGDR | 2.22
159 | FKPTVTT | 2
160 | QQYSILG | > 26
161 | WPMCESH | > 23
162 | LQEEVCI | > 28
163 | QVHVLER | 17.5
164 | PDKLKDG | > 22
165 | CRAAHHH | 0.872
166 | RKNACIM | > 23
167 | RGTTTLQ | > 27
168 | ETTGCPR | 3.33

Row | Substance | substrate phage enrichment score
169 | SAAAHHQ | 1.03
170 | PERCNAR | 0.143
171 | CPTTHHA | 13.5
172 | ATEAFQT | 2.11
173 | TQSLIQS | > 32
174 | CTHSRKV | 2
175 | AIGGYVC | 4
176 | VLEKNTL | 2.42
177 | LYIQGGS | 1.82
178 | QPTTRHD | 3.3
179 | PTVTHLQ | > 31
180 | SILQSAK | > 39
181 | RHCLSCL | 10.8
182 | PLPNFQG | > 31
183 | WKAAHHH | 0.196
184 | QGFDETT | > 27
185 | YPQVELR | 10
186 | THLQAKC | > 154
187 | LLHEDFI | > 24
188 | SGSCWPA | > 30
189 | AWRPGES | > 28
190 | VPDTFQP | 0.6
191 | RNPTQLN | > 39
192 | DSSLILQ | 15

Row | Substance | substrate phage enrichment score
193 | VHLPVPT | 11.5
194 | SRKPGAR | 0.08
195 | AVSAPGN | 3.21
196 | FGAAHHH | 0.5
197 | SRGPCLM | > 36
198 | PWDSKVY | 0.8
199 | RVEPFPR | 0.542
200 | LGGIRLH | 2.36
201 | VQHHMMG | > 42
202 | PTRTKGQ | > 22
203 | HATAHHH | 3.6
204 | RSCVLQG | > 77
205 | KADCVNW | 2.92
206 | QTSCNVC | 4.86
207 | SASLPRQ | > 30
208 | CPAAHHH | 1.17
209 | AAAHHQH | 1
210 | EGAAHHH | 8
211 | GIPPYAQ | 2.33
212 | RRESHKS | > 39
213 | TRSNLTG | > 21
214 | TCRTTLQ | > 121
215 | AARTQNW | 14
216 | AMLQSKS | 20.7

Row | Substance | substrate phage enrichment score
217 | ICEPYMN | 9
218 | PEHCQLD | 7.67
219 | FITHGLM | 7
220 | ETSRPMQ | 6.67
221 | RGNKYNR | 10
222 | SAAAHQQ | 1.17
223 | ATSDVWQ | 4.4
224 | TSCLHGV | > 36
225 | VHFQGGS | 4
226 | GSAAAHQ | 0.824
227 | PAQVGPP | 0.378
228 | SPRNHQG | 3.75
229 | CQASGQS | 9
230 | HSQRSIP | 4.6
231 | CTGEPIR | 0.103
232 | KNDSYKP | 1.12
233 | KRRPAMQ | > 22
234 | LSSPGMS | > 26
